Test results taken from PubChem BioAssay (NCI).
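Interpolation was linear, between the two tested concentrations surrounding the appropriate level; five concentrations were tested over 48 hours in 96-well plates. GI50 = concentration required for 50% inhibition of growth.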 For part of its entries the source gives two or more results. This list holds those alone. The source may hold further records. The tests behind the records often covered other concentration ranges, not given here; a value can be the end of its range.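 TGI: total growth inhibition.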

Assays:
Assay in all cases: inhibition of tumour cell growth, NCI panel, 48 h
786-0 renal = system: 786-0 renal
SNB-19 CNS = system: SNB-19 CNS
HCT-15 colon = system: HCT-15 colon
KM20L2 colon = system: KM20L2 colon
CCRF-CEM leukemia = system: CCRF-CEM leukemia
SF-295 CNS = system: SF-295 CNS
OVCAR-3 ovarian = system: OVCAR-3 ovarian
M14 melanoma = system: M14 melanoma
A498 renal = system: A498 renal
RXF 393 renal = system: RXF 393 renal
NCI-H226 lung = system: NCI-H226 lung
HT29 colon = system: HT29 colon
K-562 leukemia = system: K-562 leukemia
SK-OV-3 ovarian = system: SK-OV-3 ovarian
SK-MEL-28 melanoma = system: SK-MEL-28 melanoma
OVCAR-5 ovarian = system: OVCAR-5 ovarian
OVCAR-8 ovarian = system: OVCAR-8 ovarian
NCI/ADR-RES ovarian = system: NCI/ADR-RES ovarian
SF-268 CNS = system: SF-268 CNS
SNB-75 CNS = system: SNB-75 CNS
MDA-MB-231 breast = system: MDA-MB-231 breast
BT-549 breast = system: BT-549 breast
HCC-2998 colon = system: HCC-2998 colon
COLO 205 colon = system: COLO 205 colon
DU-145 prostate = system: DU-145 prostate
SW-620 colon = system: SW-620 colon
MDA-MB-435 = system: MDA-MB-435
UACC-62 melanoma = system: UACC-62 melanoma
LOX IMVI melanoma = system: LOX IMVI melanoma
SK-MEL-5 melanoma = system: SK-MEL-5 melanoma
MCF7 breast = system: MCF7 breast
NCI-H522 lung = system: NCI-H522 lung
HS 578T breast = system: HS 578T breast
SK-MEL-2 melanoma = system: SK-MEL-2 melanoma
RPMI-8226 leukemia = system: RPMI-8226 leukemia
IGROV1 ovarian = system: IGROV1 ovarian
MOLT-4 leukemia = system: MOLT-4 leukemia
KM12 colon = system: KM12 colon

COc1ccc(C2=CN3CCC[C@H]3C=C2c2cc(O)c(OC)c(OC)c2)cc1OC
TGI (786-0 renal): 193 nM and 18.9 nM
TGI (SNB-19 CNS): 45.3 nM and 10.2 µM
TGI (HCT-15 colon): 98.9 nM and 10.6 µM
TGI (KM20L2 colon): 93.2 nM and 1.02 µM

Cc1cc(NC(=O)NC(=O)c2ccccc2NC(=O)CN)ccc1Oc1ncc(Br)cn1
TGI (CCRF-CEM leukemia): 50.4 µM and 648 nM
TGI (SF-295 CNS): 1.51 µM and 29.9 µM
TGI (OVCAR-3 ovarian): 2.86 µM and 73.4 nM
TGI (M14 melanoma): 15.1 µM and 1.02 µM
TGI (A498 renal): 3.48 µM and 99.2 nM
TGI (RXF 393 renal): 2.42 µM and 51.5 nM
TGI (NCI-H226 lung): 32.7 µM and 2.89 µM
TGI (HT29 colon): 5.58 µM and > 100 µM
TGI (K-562 leukemia): 43.4 µM and 1.08 µM
GI50 (SK-OV-3 ovarian): 29.8 nM [1 test] and 572 nM [mean of 2 tests]

CN(C)CC(NC(NCS)C(=O)NCCNc1ccc(NCCNC(=O)C(NCS)NC(CN(C)C)OCCl)c2c1C(=O)c1c(O)ccc(O)c1C2=O)OCCl (configuration not stated)
TGI (OVCAR-3 ovarian): 1.99 µM and > 100 µM
TGI (SK-MEL-28 melanoma): 1.56 µM and > 100 µM
TGI (M14 melanoma): 1.63 µM and > 100 µM
TGI (OVCAR-5 ovarian): 4.33 µM and > 100 µM
TGI (OVCAR-8 ovarian): 142 nM and 1.5 µM

CC(=O)OC12CC(C)C3(O)C4C=C(C)C(=O)[C@@]4(O)CC(CO)=C[C@H]3C1C2(C)C (some centres not stated)
TGI (A498 renal): 8.78 µM and 378 µM

CO/C(=N\N=C\c1cccc(C(F)(F)F)c1)c1ccncc1
TGI (NCI/ADR-RES ovarian): 4.83 µM and 52.2 µM
TGI (SF-295 CNS): 4.76 µM and 48.2 µM

COc1ccc(-c2nc3sc4c(c3c(=O)[nH]2)CCCC4)c2ccccc12
GI50 (NCI/ADR-RES ovarian): 340 nM and 11 nM
GI50 (CCRF-CEM leukemia): 353 nM and 30.7 nM
GI50 (SF-268 CNS): 884 nM and 50.3 nM
GI50 (OVCAR-3 ovarian): 289 nM and 16.7 nM
TGI (OVCAR-3 ovarian): 785 nM and 52.6 nM
GI50 (SNB-75 CNS): 221 nM and 20.6 nM
GI50 (MDA-MB-231 breast): 586 nM and 41.8 nM
GI50 (786-0 renal): 450 nM and 43.9 nM
GI50 (BT-549 breast): 811 nM and 36.1 nM
GI50 (HCC-2998 colon): 1.09 µM and 36.2 nM
GI50 (COLO 205 colon): 245 nM and 22.6 nM
TGI (COLO 205 colon): 676 nM and 55.4 nM
GI50 (DU-145 prostate): 446 nM and 40.4 nM
GI50 (M14 melanoma): 239 nM and 20.4 nM
GI50 (A498 renal): 185 nM and < 10 nM
GI50 (HCT-15 colon): 466 nM and 30.9 nM
GI50 (SW-620 colon): 378 nM and 34.6 nM
GI50 (MDA-MB-435): 154 nM and < 10 nM
TGI (MDA-MB-435): 331 nM and 12.2 nM
GI50 (UACC-62 melanoma): 440 nM and < 10 nM
GI50 (LOX IMVI melanoma): 606 nM and 48.1 nM
GI50 (HT29 colon): 362 nM and 27.2 nM
TGI (HT29 colon): 2.22 µM and 74.6 nM
GI50 (SK-MEL-5 melanoma): 372 nM and 34.9 nM
GI50 (MCF7 breast): 1.05 µM and 35.1 nM
GI50 (NCI-H522 lung): 300 nM and < 10 nM
GI50 (K-562 leukemia): 327 nM and < 10 nM
GI50 (HS 578T breast): 437 nM and 15.8 nM
GI50 (SK-MEL-2 melanoma): 343 nM and 19.2 nM
TGI (SK-MEL-2 melanoma): 2.04 µM and 79.5 nM
GI50 (RPMI-8226 leukemia): 388 nM and 37.8 nM
GI50 (IGROV1 ovarian): 1.86 µM and 50 nM
GI50 (MOLT-4 leukemia): 408 nM and 36.2 nM
GI50 (KM12 colon): 396 nM and 26.7 nM
GI50 (SK-OV-3 ovarian): 420 nM and 38.8 nM
